From the supplement of paper PMC12217912
This is one part of the list. The full chains were built here from the parent and the listed change. Inactive controls read about 0.05.

B1: TEV protease; numbered along this chain (parent)
chain: MGESLFKGPRDYNPISSSICHLTNESDGHTTSLYGIGFGPFIITNKHLFRRNNGTLVVQSLHGVFKVKDTTTLQQHLVDGRDMIIIRMPKDFPPFPQKLKFREPQREERICLVTTNFQTKSMSSMVSDTSCTFPSGDGIFWKHWIQTKDGQCGSPLVSTRDGFIVGIHSASNFTNTNNYFTSVPKNFMELLTNQEAQQWVSGWRLNADSVLWGGHKVFMVKPEEPFQPVKEATQL

Variants of: B1
Test: raw area under fraction-flipped curve 0-4 h after induction (AUC4h, not background-subtracted), DNA-recorder readout of cleavage of the substrate (dimensionless); higher = more cleavage of the substrate by the protease variant
Conditions: temperature: 34 °C; time window: 0-4 h after rhamnose induction
Protocol: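 In vivo DNA recorder in E. coli TOP10(DE3) ΔrhaA at 34 °C. Each TEVp single-site mutant (parent TEVp 0) is paired with a single-site variant of the 7-mer TEVs (canonical ENLYFQ|S). The substrate sits between flexible linkers in a Bxb1-sfGFP-TEVs-SsrA fusion, so cleavage stabilises Bxb1 and speeds flipping of a recombination array, read by NGS. The value is the raw area under the fraction-flipped curve over 0-4 h after rhamnose induction (AUC4h), with ≥20 reads per time point. It is not background-subtracted; inactive controls average about 0.047.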
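Further: Bxb1 expression induced with 0.2% (w/v) L-rhamnose at OD600 near 0.5, cultures sampled hourly, flipped fraction per protease–substrate barcode pair counted by paired-end Illumina sequencing.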

| Variant | area with substrate ENLYFAS | area with substrate ENLYFCS | area with substrate ENLYFES | area with substrate ENLYFFS | area with substrate ENLYFIS | area with substrate ENLYFKS | area with substrate ENLYFMS | area with substrate ENLYFNS | area with substrate ENLYFPS | area with substrate ENLYFRS | area with substrate ENLYFSS | area with substrate ENLYFTS | area with substrate ENLYFVS | area with substrate ENLYFWS | area with substrate ENLYFYS | area with substrate ENLYFGS | area with substrate ENLYFHS | area with substrate ENLYFLS | area with substrate ENLYFDS |
| --- | --- | --- | --- | --- | --- | --- | --- | --- | --- | --- | --- | --- | --- | --- | --- | --- | --- | --- | --- |
| S32T | 0.0613 | 0.0584 | 0.0776 | 0.0634 | 0.0584 | 0.058 | 0.0754 | 0.0656 | 0.0643 | 0.0536 | 0.062 | 0.0645 | 0.0579 | 0.065 | 0.0552 |  |  |  |  |
| S32K | 0.0634 | 0.0502 |  | 0.0661 | 0.0528 | 0.0651 | 0.0295 | 0.0414 | 0.0496 | 0.044 | 0.0573 | 0.0578 |  | 0.0652 |  | 0.0569 | 0.0578 |  |  |
| S32V | 0.0559 | 0.068 | 0.0668 | 0.0801 | 0.0367 | 0.0595 | 0.0653 | 0.0467 | 0.0598 |  | 0.0621 | 0.0574 | 0.0532 | 0.0535 | 0.0462 | 0.0607 | 0.06 | 0.0605 |  |
| E25C | 0.0565 | 0.0662 | 0.0568 | 0.0631 | 0.061 | 0.0666 | 0.0644 | 0.0603 | 0.0561 | 0.0572 | 0.0473 | 0.0606 | 0.0631 | 0.0555 | 0.043 | 0.0598 |  | 0.0573 | 0.0578 |
| E25I | 0.0512 | 0.0513 | 0.0617 | 0.0756 | 0.058 | 0.0559 | 0.0803 |  | 0.054 | 0.0627 | 0.0492 | 0.0735 | 0.0902 |  | 0.0535 | 0.0591 |  | 0.0445 | 0.0861 |
| H21T | 0.0578 | 0.0572 | 0.06 | 0.0541 | 0.0617 | 0.0607 | 0.0693 | 0.0574 | 0.0619 | 0.0532 | 0.0697 | 0.0612 | 0.0548 | 0.059 | 0.0482 | 0.0906 | 0.0489 | 0.0661 | 0.0516 |
| H21I | 0.0678 | 0.0596 | 0.069 | 0.0658 | 0.0533 | 0.0661 | 0.0718 | 0.0671 | 0.0637 | 0.0549 | 0.0628 | 0.0518 |  | 0.0574 | 0.0592 | 0.0733 | 0.0565 | 0.0628 | 0.0542 |
| N24V | 0.0522 | 0.058 | 0.0581 | 0.0645 | 0.0634 | 0.0583 | 0.074 | 0.0684 | 0.0614 | 0.0619 | 0.0568 | 0.0559 | 0.0541 | 0.0443 | 0.0511 | 0.0551 | 0.053 | 0.0929 | 0.0511 |
| N24G | 0.0422 | 0.0629 | 0.0642 | 0.0682 | 0.0601 | 0.0666 | 0.0567 | 0.0637 | 0.0604 | 0.0622 | 0.0544 | 0.057 | 0.036 | 0.0538 | 0.0554 | 0.0612 | 0.0611 | 0.0686 |  |
| N24A | 0.0455 |  | 0.0611 | 0.074 | 0.0631 |  | 0.0706 | 0.0654 | 0.0596 | 0.061 |  |  |  | 0.0684 |  | 0.0602 |  |  | 0.0565 |
| N24S | 0.0519 | 0.0669 | 0.0981 |  | 0.058 | 0.0551 | 0.0624 | 0.0668 | 0.0562 | 0.0655 | 0.0819 | 0.0598 |  |  | 0.0582 |  |  | 0.0631 | 0.0615 |
| N24P | 0.0565 | 0.05 | 0.0554 | 0.0622 | 0.0535 | 0.0556 | 0.052 | 0.0484 | 0.0582 | 0.059 | 0.0517 | 0.0482 |  |  | 0.059 | 0.0653 | 0.0698 | 0.051 | 0.0513 |
| H47G | 0.0715 | 0.0487 | 0.052 | 0.0674 | 0.0587 | 0.0599 | 0.0567 | 0.0542 | 0.0594 | 0.0582 | 0.0562 | 0.0586 | 0.053 | 0.0641 | 0.0528 | 0.0454 | 0.0598 | 0.0715 | 0.0625 |
| F38R | 0.0533 | 0.0527 |  | 0.0519 | 0.055 | 0.0566 | 0.0509 | 0.0694 | 0.0528 |  | 0.0545 | 0.0447 | 0.0047 | 0.0747 |  |  | 0.0565 | 0.0369 | 0.0481 |
| P40M | 0.0613 | 0.0536 |  |  | 0.0618 | 0.0395 | 0.0641 | 0.0669 |  | 0.0668 |  | 0.0468 | 0.0345 | 0.0547 | 0.0543 |  |  | 0.0467 |  |
| L48P | 0.0567 | 0.0564 |  | 0.0824 |  |  | 0.045 | 0.06 | 0.0561 |  | 0.0703 | 0.0557 | 0.0574 | 0.056 | 0.0461 | 0.0565 | 0.0549 | 0.0693 |  |
| L48T | 0.0613 | 0.068 | 0.0548 | 0.0735 | 0.0575 | 0.0814 | 0.0619 |  | 0.0617 | 0.0585 |  | 0.0594 | 0.0418 | 0.0523 | 0.0529 | 0.0578 | 0.0582 |  |  |
| L48D | 0.0557 | 0.0674 | 0.0744 | 0.0684 | 0.0537 | 0.0634 | 0.0789 | 0.0685 | 0.0599 | 0.0614 | 0.0603 | 0.0622 | 0.0574 | 0.0549 | 0.0827 |  | 0.0462 | 0.0583 | 0.0606 |
| I42S | 0.0448 | 0.045 | 0.0525 | 0.0583 | 0.0424 |  | 0.0558 | 0.0471 | 0.0405 | 0.0424 | 0.0548 | 0.0376 | 0.0398 |  | 0.0424 | 0.0597 | 0.0731 | 0.0485 |  |
| I36P | 0.0203 | 0.0419 | 0.0364 | 0.0463 | 0.031 | 0.0348 | 0.0513 | 0.0138 | 0.0384 | 0.0417 | 0.0344 | 0.0309 | 0.0384 | 0.0377 |  |  |  |  |  |
| S16F | 0.0524 |  | 0.0596 | 0.0691 | 0.0551 |  | 0.068 | 0.109 | 0.0484 | 0.039 | 0.0573 |  | 0.0539 |  |  | 0.0378 | 0.0696 |  |  |
| S16K | 0.063 | 0.0704 | 0.0618 | 0.0662 | 0.0552 | 0.0594 | 0.0602 | 0.06 | 0.0563 | 0.0544 | 0.0323 | 0.0469 |  | 0.0607 |  | 0.0686 | 0.0544 |  |  |
